Assay results as given in PubChem BioAssay AID1347073 (National Center for Advancing Translational Sciences (NCATS), 2019).
About 200 (0.44%) of roughly 45,000 compounds were called active. Not shown: some 7% with an inconclusive outcome. The call rests on the fitted dose curve; in most records, active means well fitted activation curve with a large enough effect; inconclusive means small, poorly fitted or top-dose-only effect; inactive means no such curve, though single readings can be large or run the other way. This is one part of the list.

Test: qHTS of TDP-43 Inhibitors: NCGC Sytravon Library Screen; further: 0% is about no effect; nearly all actives have a fitted effect of over 55% in size
Settings: yeast TDP-43 toxicity rescue, BacTiter-Glo growth, 24 h; series mostly up to 46.1 µM; growth rescue (activation): at the top concentration
In short: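 TDP-43-expressing yeast, pregrown in raffinose, seeded at OD600 0.02 in galactose medium with compound for 24 hr at 30 deg C. Growth read by BacTiter-Glo luminescence, so rescue of toxicity appears as activation.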

Structure (SMILES)	growth rescue (activation)
COC(=O)c1ccc(CN2CCC(CO)(Cc3ccc(OC)cc3)CC2)cc1	inactive: -3.6%
COc1ccc(S(=O)(=O)N2CCCC(C(=O)NCc3ccco3)C2)cc1OC (stereo unspecified)	inactive: -14.5%
N=C1C2=C3Sc4ccccc4N3CCCC2=NN1c1cccc(S(=O)(=O)O)c1	inactive: 27.2%
O=C(Nc1ccccc1)[C@@H]1CCCN1S(=O)(=O)c1ccc(Cl)cc1	inactive: 24.2%
CN(CC(=O)N1CCN(c2ccccn2)CC1)S(=O)(=O)c1ccc(Cl)cc1	inactive: 15.5%
CC1(C)NC(=O)N(CCOCCOc2ccccc2)C1=O	inactive: 10.2%
CC(C)[C@H](Nc1ccc(S(=O)(=O)N2CCOCC2)cc1[N+](=O)[O-])C(=O)OCC(=O)N(C(C)C)C(C)C	inactive: 11.4%
N#C/C(=C/c1ccc(-c2cccc([N+](=O)[O-])c2)o1)C(=O)Nc1nc(-c2cccs2)cs1	inactive: -9.85%
CC(C)CN1C(=O)c2ccc(C(=O)Nc3ccc(OCC(=O)O)cc3)cc2C1=O	inactive: 1.42%
N#Cc1ccccc1NC(=O)CSc1n[nH]c(=O)n1C1CC1	inactive: -21.8%
O=C(O)c1ccc(-n2cncn2)c([N+](=O)[O-])c1	inactive: -18.5%
Cc1ccc(C)c(SCC(=O)NC(=O)Nc2ccc3c(c2)OCCO3)c1	inactive: 8.85%
CCOC(=O)c1c(C)[nH]c(C(=O)COC(=O)CNC(=O)c2ccc(Cl)cc2)c1C	inactive: 1.72%
COc1cc(/C=C(\C#N)C(=O)NCC2CCCO2)ccc1OCCC(C)C (stereo unspecified)	inactive: -7.16%
Cc1c(C(=O)N(C)Cc2nc3ccccc3c(=O)[nH]2)oc2ccccc12	inactive: 16.1%
CCOC(=O)c1c(-c2ccccc2)oc2ccc(OCC(O)CN(C)C)cc12 (stereo unspecified)	inactive: -2.12%
CC(=O)c1cc(-c2ccccc2)n(CCC(=O)NC(C)(C)C)c1C	inactive: -5.03%
CN1CCN(C(=O)c2cc3c(=O)n4ccccc4nc3s2)CC1	inactive: -1%
CC1(C(=O)NC2CCCCC2)CCC(=O)N1Cc1ccc2c(c1)OCO2 (stereo unspecified)	inactive: 1.48%
CCOP(=O)(OCC)C(NC(=O)Nc1cccc(Cl)c1)c1ccccc1 (stereo unspecified)	inactive: -3.26%
Cc1nnc(NS(=O)(=O)c2ccc(F)cc2)s1	inactive: 4.3%
O=C1OC(c2ccccc2)=N/C1=C\C=C\c1ccco1	inactive: 20.7%

Structure (SMILES)	growth rescue (activation)
O=[N+]([O-])c1ccc(N2CCN(Cc3ccccc3)CC2)s1	inactive: 2.63%
Cc1nc2ccccc2nc1CN1CCC(CO)(CC2CCCCO2)CC1 (stereo unspecified)	inactive: 1.71%
CCNS(=O)(=O)c1ccc(NC(=O)c2ccccc2SCCOC)cc1	inactive: 4.73%
CC(C)CN1CCN(Cc2cccn2-c2cccnc2)CC1CCO (stereo unspecified)	inactive: 2.83%
C=CCN(CC=C)C(=S)NCCc1ccc(OC)c(OC)c1	inactive: 27.2%
Cc1cc(C)cc(NC(=S)NC2CC3CCCC(C2)N3C2CC2)c1 (stereo unspecified)	inactive: 4.09%
Cc1ccc(S(=O)(=O)c2nc(NCCCn3ccnc3)sc2Cl)cc1	inactive: 13.1%
CC1(C(=O)NCc2ccc3c(c2)OCO3)CCN1Cc1csc2ccccc12 (stereo unspecified)	inactive: 3.37%
CC(C)(C)c1ccc(C(=O)NCCCNC(=O)c2cccnc2)cc1	inactive: 10.4%
NC(=O)CSc1nnc(-c2cnccn2)n1Cc1ccco1	inactive: -23.2%
CN(C)C(=O)/C=C\c1cn(-c2ccccc2)nc1-c1ccc2c(c1)OCCO2	inactive: 33.7%
COc1ccc(CC(NC(C)=O)C(=O)NC2CCN(c3nc(C)cc(C)c3C#N)CC2)cc1 (stereo unspecified)	inactive: -0.331%
CN(Cc1ccccn1)C(=O)CC1C(=O)NCCN1Cc1cccc(Oc2ccccc2)c1 (stereo unspecified)	inactive: -15.9%
CCCC(CCC)C(=O)NC1CCN(Cc2ccccc2)CC1	inactive: 17.3%
CCC(c1n[nH]c(=S)n1-c1ccccc1)N(C)C (stereo unspecified)	inactive: 17.8%
COc1ccccc1NC(=O)c1ccc2c(=O)n3c(nc2c1)CCC3	inactive: 17.9%
Cc1ccc(S(=O)(=O)N2CCN(C(=O)c3c(-c4ccccc4)noc3C)CC2)c(C)c1	inactive: -13.5%
O=C(CS(=O)(=O)Cc1ccccc1)Nc1ccc(S(=O)(=O)N2CCOCC2)cc1	inactive: 7.37%
CC(=O)NC1CC2CCCC(C1)N2C(=O)Nc1cccc(Cl)c1 (stereo unspecified)	inactive: -7.08%
Cc1csc(SCC(=O)NC(=O)NC2CCCC2)n1	inactive: 14.6%
O=C(CN1C(=O)NC(c2ccccc2)(c2ccccc2)C1=O)NCCc1ccc(F)cc1	inactive: 10.7%
COc1cc(/C=C(/C#N)C(=O)Nc2ccccc2)c(Br)cc1OCc1ccc(C(=O)O)cc1	inactive: 9.33%

Structure (SMILES)	growth rescue (activation)
Cc1onc(-c2ccccc2)c1-c1nc2ccccc2c(=O)o1	inactive: 12.2%
CC1CCN(C(=O)Cn2cnc3c2c(=O)n(C)c(=O)n3C)c2ccccc2S1 (stereo unspecified)	inactive: 3.88%
COc1cccc(N2CCN(C(=O)CN(C)S(=O)(=O)c3ccc4c(c3)c(=O)n(C)c(=O)n4C)CC2)c1	inactive: 0.426%
CCc1nnc(NC(=O)COc2ccc3ccccc3c2)s1	inactive: 14.7%
COc1ccc(-n2nc(C(=O)NCC(=O)NCCCN3CC(C)CC(C)C3)c3ccccc3c2=O)cc1Cl (stereo unspecified)	inactive: -12%
COc1cc(/C=C2\SC(=S)N(NC(=O)c3ccc(O)cc3)C2=O)ccc1O	inactive: -17.3%
O=C1CSC(c2ccc(Cl)cc2)N1Nc1nc(N2CCOCC2)nc(N2CCOCC2)n1 (stereo unspecified)	inactive: 1.72%
Cc1ccc(C(C(=O)NCc2ccccc2)N(C(=O)c2csnn2)C2CC2)cc1 (stereo unspecified)	inactive: 18.3%
CCCCc1c(C)nc2c(OC)cccc2c1SCCC(=O)O	inactive: -20.2%
O=C(COC(=O)c1cccc2ccccc12)NCCCc1ccccc1	inactive: 9.25%
OC[C@@H]1CN(Cc2ccc(-c3ccccc3)cc2)C[C@H](n2cnc3c(NCc4ccco4)ncnc32)O1	inactive: 4.94%
CC(C)OC(=O)CC1C(=O)NCCN1C(=S)NC(=O)c1ccc(F)cc1 (stereo unspecified)	inactive: -16.6%
N#Cc1ccccc1OCC(=O)NC(=O)NCc1ccccc1	inactive: 19%
Cc1c(C(=O)NCCC2=CCCCC2)oc2ccc(S(=O)(=O)N3CCC4(CC3)OCCO4)cc12	inactive: -9.61%
Cc1csc(SCC(=O)Nc2nnc(C)s2)n1	inactive: 21.5%
COc1ccc(CCNC(=O)c2ccc3c(c2)NC(=O)C(C(C)C)N3)cc1OC (stereo unspecified)	inactive: 5.24%
COc1ccccc1C(=O)Nc1ccc(S(=O)(=O)N2CCCCC2)cc1	inactive: 13.8%
CC(C)NS(=O)(=O)c1ccc(CCC(=O)N2CCCCC2)cc1	inactive: 7.62%
Cc1nc(SCCC(=O)O)c2cc(-c3ccccc3)sc2n1	inactive: -2.16%
COc1ccccc1N1CCN(CC(O)COc2ccc(C)c(C)c2)CC1 (stereo unspecified)	inactive: -13.4%
Cc1nn(-c2ccccc2)c(C)c1/C=N/Nc1nc2ccccc2[nH]1	inactive: 12.4%
CCCCC(NC(=O)Cc1c(C)c2cc3c(-c4ccccc4)coc3c(C)c2oc1=O)C(=O)O (stereo unspecified)	inactive: 17.6%
